Data as given in the supplement of paper PMC5919970.
Where a name gives a salt, the structure may show the parent alone. Whole data set: some 2,000 compounds, median “fractional viability relative to vehicle” near 0.92, cut for the lowest 2% near 0.11. The list shows a part of the results.

Test system: TYKNU
Assay: fractional viability relative to vehicle; TYKNU is a high-grade serous ovarian cancer line; higher = less growth inhibition
Conditions: 72 h, genotype: OPA1 knockout (sgOPA1 #2)
How it was run: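 TYKNU control cells or lentiCRISPRv2 knockout derivatives were seeded at 500 cells per well into drug-stamped 384-well plates holding a ~2100-compound library at 2 or 10 μM, in duplicate. Cells were grown at 37 °C in 5% CO2 in RPMI 1640 with 10% FBS, and drug treatment lasted 72 h. Viability was read by Cell Titer Glo luminescence. Duplicate treatment wells were averaged and normalised to duplicate control wells from the same plate position.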

| SMILES | fractional viability (2uM) | fractional viability (10uM) |
| --- | --- | --- |
| c1ccc2c(c1)Nc1ccccc1S2 [Phenothiazine] | 0.943 | 0.998 |
| CN1CCCCC1Cn1cc(C(=O)c2cc([N+](=O)[O-])ccc2I)c2ccccc21 (configuration not stated) | 1.11 | 1.11 |
| O=c1ccc2cc(O[C@@H]3O[C@H](CO)[C@@H](O)[C@H](O)[C@H]3O)c(O)cc2o1 [Esculin] | 1.24 | 0.78 |
| O=C(O)C(=O)c1cn(Cc2ccccc2)c2ccc(-c3ccc(OC(F)(F)F)cc3)cc12 [Tiplaxtinin (PAI-039)] | 0.83 | 0.666 |
| c1cc2c(cc1[C@H]1OC[C@H]3[C@@H]1CO[C@@H]3c1ccc3c(c1)OCO3)OCO2 [Sesamin] | 1.06 | 0.894 |
| Cc1cc(O)ccc1Cl [Chlorocresol] | 1.01 | 0.909 |
| Fc1cc(F)c2c(c1)[C@H]1C=CC[C@H]1C(c1cccnc1)N2 (some centres not stated) [Golgicide A] | 0.235 | 0.256 |
| Nc1nc(N)nc(NC2CC2)n1 [Cyromazine] | 1.01 | 0.994 |
| CN1[C@@H]2CC[C@H]1C[C@@H](OC(=O)[C@H](CO)c1ccccc1)C2 [Hyoscyamine] | 1 | 0.873 |
| NCCc1ccc(S(=O)(=O)F)cc1 | 0.87 | 0.853 |
| O=[N+]([O-])/C=C/c1ccc2c(c1)OCO2 | 0.477 | 0.113 |
| C/C(=C\c1csc(C)n1)[C@@H]1C[C@@H]2O[C@]2(C)CCC[C@H](C)[C@H](O)[C@@H](C)C(=O)C(C)(C)[C@@H](O)CC(=O)O1 [Epothilone B (EPO906, Patupilone)] | 0.662 | 0.47 |
| C=CC[C@]1(O)CC[C@H]2[C@@H]3CCC4=CC(=O)CCC4=C3C=C[C@@]21C [Altrenogest] | 0.97 | 0.84 |
| Cc1cccc(C(C)c2c[nH]cn2)c1C (configuration not stated) [Medetomidine HCl] | 0.977 | 1.04 |
| C=C[C@H]1CN2CC[C@H]1C[C@H]2[C@H](O)c1ccnc2ccccc12 [Cinchonidine] | 0.878 | 0.804 |
| COC[C@H]1OC(=O)c2coc3c2[C@@]1(C)C1=C(C3=O)[C@@H]2CCC(=O)[C@@]2(C)C[C@H]1OC(C)=O [Wortmannin] | 0.744 | 0.149 |
| CC1(C)CC(O)CC(C)(C)N1[O] [Tempol] | 0.982 | 1.06 |
| O=S(=O)(CC1CS1)c1ccc(Oc2ccccc2)cc1 (configuration not stated) | 0.624 | 0.363 |
| CN1[C@@H]2CC(O)C[C@H]1[C@@H]1O[C@@H]12 (some centres not stated) [Scopine] | 0.96 | 0.768 |
| O=c1[nH]c2ccccc2n1CCCN1CCC(n2c(=O)[nH]c3cc(Cl)ccc32)CC1 [Domperidone] | 1.14 | 0.866 |
| COc1ccc(C(=O)N2CCCC2=O)cc1 [Aniracetam] | 1.21 | 1.1 |
